About 5,300 (4.4%) of roughly 120,000 compounds were called active. Inconclusive means that the source gave no clear call. Such entries were picked first, then a sample of the others. Calls follow the shape of the dose curve; as a rule, active = well fitted inhibition curve with a large enough effect; inconclusive = small, poorly fitted or top-dose-only effect; inactive = no such curve, though single readings can be large or run the other way. Potencies beside an inconclusive call are fits to weak or partial responses and may not hold up.
Test: qHTS Primary assay for Inhibitors of Plasmodium falciparum Dd2 growth in vitro; also: nearly all actives have a fitted effect of over 65% in size;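 as to activity, negative = inhibition: plate controls were DMSO vehicle for no effect and reference drug for full effect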
Details: P. falciparum Dd2 growth, SYBR Green, 72 h; activity, negative = inhibition: at 28.9 µM (top of the series) unless noted; series mostly up to 28.9 µM
How it was run: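 Readout: SYBR Green fluorescence, 485 nm excitation, 535 nm emission, after ~16 h lysis at 37C. Before that, Dd2-infected red cells (2.5% hematocrit) grew 72 h with compound, 29 uM top final concentration.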
Potency is read from the fitted curve at half-maximal effect; tags tell the direction and shape of the fitted curve.

Structure (SMILES) | Potency | activity, negative = inhibition | outcome
Cc1noc(/C=C/c2cccs2)c1S(=O)(=O)N1CCC(C(=O)NCc2ccccc2Cl)CC1 | inconclusive: 1 µM [inhibitor, single point] | – | –
CCCN1CCN(C(=O)CC2CCCN(c3cnn(CCOC)c(=O)c3)C2)CC1 (stereo not drawn) | – | inactive: 53.5% | –
Cc1c(Cl)cccc1NC(=O)Cn1cccc1-c1nc(-c2ccc(F)cc2)no1 | – | inactive: 87.3% | –
COc1cccc(Cn2c(CNC(=O)c3cc([N+](=O)[O-])ccc3Cl)nc3cccnc32)c1 | inconclusive: 17.8 µM [inhibitor, single point] | – | –
COc1ccc(NC(=O)O[C@@H]2CO[C@H]3[C@@H]2OC[C@@H]3NS(=O)(=O)c2ccc(Cl)cc2)cc1 | – | inactive: -8.16% | –
CC(C)NC(=O)N1CCC[C@@H](O)[C@H](NC(=O)c2ccc(OCc3ccccc3)cc2)C1 | inconclusive: 0.398 µM [inhibitor, partial curve, poor fit] | – | –
CN(C(=O)Cn1cc(S(=O)(=O)Cc2ccccc2Cl)c2ccccc21)c1ccccc1 | inconclusive: 10 µM [inhibitor, single point] | – | –
COc1ccc(-c2nn3c(-c4ccccc4C)nnc3c3ccccc23)cc1 | active: 11.2 µM | – | –
Cc1ccc(Cl)cc1N1CCN(S(=O)(=O)c2ccc3c(c2)CC(C)N3C(=O)C2CCC2)CC1 (stereo not drawn) | inconclusive: 0.0282 µM [inhibitor, full curve, poor fit] | – | –
Cc1cccc(NC(=O)Nc2nnc(N(C)Cc3ccccc3)s2)c1 | inconclusive: 15.8 µM [inhibitor, partial curve, poor fit] | – | –
COc1ccc(Cl)cc1-c1ccc2c(c1)C(=O)N1CCN(C(=O)C3CCCCC3)C[C@@H]1C(=O)N2 | – | – | inactive
CCOc1ccccc1NC(=O)N1CCc2c(sc(C)c2CC)C1c1ccccc1 (stereo not drawn) | inconclusive: 14.1 µM [inhibitor, single point] | – | –
COc1ccc(CNc2ncnc3onc(-c4ccc(F)cc4)c23)cc1 | inconclusive: 17.8 µM [inhibitor, partial curve, poor fit] | – | –
O[C@H]1CC[C@@H](Cc2cc(COc3ccccc3)on2)O[C@@H]1CNCc1cccc(Cl)c1 | active: 1.26 µM | – | –
COc1ccc(CC(=O)NC2CCCN(c3cc(-c4ccc(Cl)cc4)[nH]n3)C2)cc1OC (stereo not drawn) | inconclusive: 1 µM [inhibitor, partial curve, poor fit] | – | –
C=C[C@H]1CN2CC[C@H]1C[C@@H]2CNS(=O)(=O)c1ccc(OC)cc1 | inconclusive: 5.62 µM [inhibitor, single point] | – | –
CCCc1cnc2c(c1SCC(=O)Nc1ccc(C)c(Cl)c1)c(=O)n(C)c(=O)n2C | inconclusive: 17.8 µM [inhibitor, single point] | – | –
COc1cc(/C=C(\C#N)c2nc3ccccc3[nH]2)ccc1OCc1cccc(C(F)(F)F)c1 | inconclusive: 2.51 µM [inhibitor, partial curve, poor fit] | – | –
O=c1[nH]c(N2CCOCC2)nc2c1CCN(Cc1ccc(Br)cc1)CC2 | inconclusive: 1.58 µM [inhibitor, partial curve, poor fit] | – | –
FC(F)(F)c1ccc(N2C3CCC2CN(Cc2ccc(-c4ccccc4)cc2)C3)cc1 | – | – | inactive
CS(=O)(=O)N1CCCN(Cc2ccc(F)cc2F)CCNC(=O)CC1c1ccccc1 (stereo not drawn) | inconclusive: 3.98 µM [inhibitor, partial curve] | – | –

Structure (SMILES) | Potency | activity, negative = inhibition | outcome
COc1ccc(C(=O)N2CCCC2c2nc(CCOCC3CC3)no2)cc1 (stereo not drawn) | – | inactive: -26.4% | –
COc1ccc(C2CC(=O)N(Cc3cccc(F)c3)c3ccccc3S2)cc1 (stereo not drawn) | inconclusive: 17.8 µM [inhibitor, single point] | – | –
O=C(c1ccc(F)cc1)N1CCc2nc(-c3ccccc3)nc(-c3ccc(Cl)cc3)c2C1 | inconclusive: 10 µM [inhibitor, single point] | – | –
Cc1ncsc1CCC(=O)N[C@@H]1COCC[C@@H]1OCc1cscn1 | – | inactive: -21.5% | –
CN(Cc1cccc(O)c1)C(=O)c1cc(COc2ccccc2F)[nH]n1 | – | inactive: -20.5% | –
Cc1ccc(-n2nc(C)c3c(C(=O)NCc4ccccc4)cc(C4CC4)nc32)cc1 | inconclusive: 12.6 µM [inhibitor, single point] | – | –
COc1cccc(CNC(=O)c2nn(-c3ccc(C)cc3)c(=O)c3c2c2ccccc2n3C)c1 | inconclusive: 8.91 µM [inhibitor, partial curve, poor fit] | – | –
CCOC(=O)c1oc2ccc(S(=O)(=O)n3nc(-c4ccc(Br)cc4)cc3N)cc2c1C | inconclusive: 17.8 µM [inhibitor, single point] | – | –
COc1ccc(CN2C(=O)CO[C@H](c3ccc(NC(=O)COc4ccccc4)cc3)[C@H]2CO)cc1 | inconclusive: 17.8 µM [inhibitor, single point] | – | –
Cc1c(F)cccc1NC(=O)C1CN(S(=O)(=O)C2CC2)CC12CCCCC2 (stereo not drawn) | inconclusive: 17.8 µM [inhibitor, single point] | – | –
COc1ccc(Nc2nc(N)c3cc(OC)c(OC)cc3n2)cc1 | inconclusive: 5.01 µM [inhibitor, partial curve, poor fit] | – | –
CC1CCc2c(sc(NC(=O)C3c4ccccc4Oc4ccccc43)c2C(=O)OC(C)C)C1 (stereo not drawn) | – | inactive: -0.415% | –
CCN(CC)c1ccc(C(=O)N2CCCC(n3cc(-c4noc(C)n4)nn3)C2)cc1 (stereo not drawn) | inconclusive: 0.355 µM [inhibitor, full curve, poor fit] | – | –
CCOC(=O)c1scc(-c2ccccc2)c1S(=O)(=O)Nc1cc(Cl)c(OC)cc1OC | inconclusive: 10 µM [inhibitor, single point] | – | –
Cc1ccc(CN2CCC3(Cc4ccccc4CNC3=O)C2)cc1 (stereo not drawn) | inconclusive: 20 µM [inhibitor, single point] | – | –
CCC1=C(C(=O)OC)C(c2ccccc2OC)N2C(CC(=O)NCC3CCCO3)=CSC2=N1 (stereo not drawn) | inconclusive: 1.58 µM [inhibitor, full curve] | – | –
Cc1ccc(-c2cc(C(=O)N3CCC(Cc4nncn4C(C)C)CC3)c3ccccc3n2)cc1C | active: 5.01 µM | – | –
C=C[C@H]1CN2CC[C@H]1C[C@@H]2CNC(=O)c1ccc(C#N)cc1 | inconclusive: 5.62 µM [inhibitor, single point] | – | –
CCOC(=O)c1sc(NC(=O)C2c3ccccc3Oc3ccccc32)c(C(=O)OCC)c1C | inconclusive: 0.316 µM [inhibitor, partial curve] | – | –
O=C1CCCCN1CCNc1ccc(-c2nc(-c3ccccc3F)no2)cn1 | inconclusive: 14.1 µM [inhibitor, single point] | – | –
CC(C)CCNC(=O)CN1C(=O)CSc2ccc(S(=O)(=O)N3CCCCC3)cc21 | inconclusive: 10 µM [inhibitor, partial curve, poor fit] | – | –

Structure (SMILES) | Potency | activity, negative = inhibition | outcome
COc1ccc(CCNC(=O)c2ccc3c(c2)ncn3-c2ccc(C)cc2C)cc1OC | inconclusive: 17.8 µM [inhibitor, single point] | – | –
CCN(CC)CCNC(=O)c1ccc2c(=O)n3nc(Nc4ccccc4OC)sc3nc2c1 | inconclusive: 10 µM [inhibitor, single point] | – | –
CCOc1ccc(-c2nc(CSCC(=O)NCc3ccc(Cl)cc3)c(C)o2)cc1 | inconclusive: 14.1 µM [inhibitor, partial curve, poor fit] | – | –
COc1cc(C)c2c(c1C)C[C@H](C(C)C(=O)NC(C)(C)C)CC2 (stereo partly drawn) | inconclusive: 10 µM [inhibitor, partial curve] | – | –
COc1cccc(CNC(=O)C2CCN(c3nnc(-n4c(C)ccc4C)s3)CC2)c1OC | inconclusive: 10 µM [inhibitor, partial curve] | – | –
CC(=O)c1cc2c(cc1N/C(=N/S(=O)(=O)c1ccc(C)cc1)c1ccc(F)cc1)OCO2 | inconclusive: 20 µM [inhibitor, single point] | – | –
CCOc1cccc(CN2C[C@@H](COC)[C@H](C(=O)N(C)C)C2)c1 | inconclusive: 6.31 µM [inhibitor, partial curve, poor fit] | – | –
NC(=O)CN1C(=O)CO[C@H]2CN(Cc3ccc(C(F)(F)F)cc3)C[C@H]21 | – | inactive: 3.74% [at 44.1 µM] | –
CCN1C(C(=O)c2ccccc2)=C(OC(=O)c2ccccc2OC)c2ccccc2S1(=O)=O | inconclusive: 10 µM [inhibitor, single point] | – | –
COCC(=O)N(C1CCOCC1)C1CCN(C(=O)c2ccc(OC)c(F)c2)CC1 | – | inactive: 20.2% | –
Cc1cc(C(=O)NCc2ccccc2Cl)c2c(C)nn(-c3ccccc3)c2n1 | inconclusive: 17.8 µM [inhibitor, single point] | – | –
O=C(C1CC1)N1CC(Oc2ccc(-c3noc(C4CCOCC4)n3)cc2)C1 | – | – | inactive
CN(Cc1ccccc1)C(=O)C[C@@H]1CCNC[C@@H]1Cc1cc(CSc2ccccc2)on1 | active: 10 µM | – | –
N#Cc1cccc(-c2cn3c(n2)N(C(=O)c2cccs2)CCC3)c1 | inconclusive: 7.94 µM [inhibitor, single point] | – | –
CCOc1ccccc1NC(=O)c1c(NC(=O)c2cccc(C)c2)sc2c1CCC2 | inconclusive: 7.94 µM [inhibitor, partial curve, poor fit] | – | –
CCN(CC)C(=O)CC[C@H]1CNC(=O)[C@H]2NCC[C@H]2N1C | – | inactive: 18% [at 44.1 µM] | –
CCOc1ccccc1CN1CCC(N2CCCC(C(=O)NC3CC3)C2)CC1 (stereo not drawn) | inconclusive: 17.8 µM [inhibitor, single point] | – | –
COc1ccccc1NC(=O)C1c2ccccc2C(=O)N(CC(C)C)C12CCCC2 (stereo not drawn) | active: 3.55 µM | – | –
CC(C)NC(=O)C1CCc2nnc(C3CCN(C(=O)c4ccccc4)CC3)n21 (stereo not drawn) | – | inactive: 19% | –
Cc1nc([C@@H]2CN(C(=O)CN3CCCCCC3)C[C@H]2C(N)=O)n[nH]1 | – | inactive: 3.69% | –
Cc1ccc(NC(=O)c2ccc(-n3c(C)nnc3C)cc2)cc1F | inconclusive: 11.2 µM [inhibitor, single point] | – | –

— PubChem BioAssay AID1347417 (National Center for Advancing Translational Sciences (NCATS), 2020)
